67 compounds from PubChem BioAssay AID1347073 (National Center for Advancing Translational Sciences (NCATS), 2019) can be followed below.

The campaign covered roughly 45,000 compounds. About 200 (0.44%) were called active. Another 7% or so got no clear call; they are omitted. The call rests on the fitted dose curve; in most records, active means well fitted activation curve with a large enough effect; inconclusive means small, poorly fitted or top-dose-only effect; inactive means no such curve, though single readings can be large or run the other way. The list shows a part of the results.

The nature of this assay: qHTS of TDP-43 Inhibitors: NCGC Sytravon Library Screen. Further: 0% is about no effect; nearly all actives have a fitted effect of over 55% in size. Conditions: yeast TDP-43 toxicity rescue, BacTiter-Glo growth, 24 h; series mostly up to 46.1 µM; growth rescue (activation): at the top concentration. Put shortly:
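TDP-43-expressing yeast, pregrown in raffinose, seeded at OD600 0.02 in galactose medium with compound for 24 hr at 30 deg C. Growth read by BacTiter-Glo luminescence, so rescue of toxicity appears as activation.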
(qHTS replaces the single test concentration by a dilution series.)
Consider `COc1cccc(NC(=S)N2CCCC2)c1`, for which the “growth rescue (activation)” value is inactive: 6.74%. As for `Cc1ccc(CNC(=O)Cn2cccc2C(=O)c2ccccc2C)cc1`, the “growth rescue (activation)” value is inactive: 16.4%. `Cc1ccc(-c2csc(NC(=O)Cn3[nH]c(=O)c4ccccc4c3=O)n2)cc1`: the “growth rescue (activation)” value is inactive: 4.35%.

In the case of `O=C(O)c1ccc2c(c1)C(=O)N(c1nccs1)C2=O`, the “growth rescue (activation)” value was inactive: -25.5%. Turning to `CSc1ccc(CN2CCC(C)(Oc3ccc4ccccc4c3)C2)cc1` (configuration not stated), the “growth rescue (activation)” value is inactive: 11.4%. Consider `CSc1ccc(/C=C/C(=O)OCC(=O)N2CCN(c3ccccc3)CC2)cc1`, for which the “growth rescue (activation)” value is inactive: 4.01%. The same measure for `CC(C)CC(N)c1csc(Nc2cnccn2)n1` (configuration not stated): inactive: 3.91%. For the compound `COC(=O)c1c(NC(=O)COC(=O)c2ccc(O)cc2)sc2c1CCCCC2`, the “growth rescue (activation)” value was inactive: -10.2%. `Cc1c(CCNC(=O)C(C)(C)C)sc2nc(-c3ccc(F)cc3)nn12`: the “growth rescue (activation)” value is inactive: 15.4%.

Consider `COc1ccc2[nH]c(C(=O)O)c(NC(=O)c3ccccc3[N+](=O)[O-])c2c1`, for which the “growth rescue (activation)” value is inactive: 27%. Turning to `COc1ccc(OC)c(C(=O)c2ccc(C(=O)Nc3cccc4ccccc34)cc2)c1`, the “growth rescue (activation)” value was inactive: 9.89%.

With `N#C/C(=C(/O)Cc1ccccc1)P(=O)(c1ccccc1)c1ccccc1`, the “growth rescue (activation)” value was inactive: 3.81%. In the case of `CC1(C)Cc2c(c(-c3ccccc3)nc(N3CCOCC3)c2C(N)=O)CO1`, the “growth rescue (activation)” value was inactive: -23.6%. Regarding `Cc1cccc(C)c1NC(=O)C(C)Sc1nnc(C)n1CC1CCCO1` (configuration not stated), the “growth rescue (activation)” value was inactive: -17.7%. Turning to `CCOc1ccc(NC(=O)NC23CC4CC(CC(C4)C2)C3)cc1`, the “growth rescue (activation)” value was inactive: -0.162%. With `Cc1ccc(C(C(=O)NCC2CCCO2)N(C(=O)c2snc(C(N)=O)c2N)c2ccc3c(c2)OCCO3)cc1` (configuration not stated), the “growth rescue (activation)” value is inactive: -6.13%. Turning to `COc1ccc(Cl)cc1N(CC(=O)N1CCCCC1)S(C)(=O)=O`, the “growth rescue (activation)” value is inactive: 7.16%. On to `CC(=O)c1c(C)oc2ccc(NS(=O)(=O)c3ccc(O)c(C(=O)O)c3)cc12`, for which the “growth rescue (activation)” value is inactive: -6.37%. `Cc1cccc(NC(=S)Nc2ccc(Oc3ccccc3)cc2)n1`: the “growth rescue (activation)” value was inactive: 20.9%. As for `CCN(Cc1ccccc1)c1ccc(/C=N/N=C(N)N)cc1`, the figure is inactive: 8.97%; as for `O=C(CNCc1ccccc1Cl)Nc1ccc(C(=O)N2CCCCC2)cc1`, inactive: 6.52%.

Consider `COc1cc(OC)cc(C(=O)N2CCN(C3CCC(C)CC3)CC2)c1` (configuration not stated), for which the “growth rescue (activation)” value is inactive: 8.77%.

With `Cc1ccc(-c2nc(N)sc2CC(=O)OCC(=O)NCC2CCCO2)cc1` (configuration not stated), the “growth rescue (activation)” value is inactive: 11.4%. As for `Cc1cccc(C(=O)NCCNC(=O)c2ccccn2)c1`, the “growth rescue (activation)” value was inactive: -7.12%. As for `CC1C[N+](=C2C=C(N3CCOCC3)CC(C)(C)C2)CC(C)O1` (configuration not stated), the figure is inactive: 5.83%; as for `Cc1ccc2c(c1)nnn2C1CCN(S(=O)(=O)c2ccc(C(=O)N3C(C)CCCC3C)cc2)CC1` (configuration not stated), inactive: -1.55%; as for `CC1CCCC(C)N1C(=O)CSc1ncccn1` (configuration not stated), inactive: 31.2%. As to `Cc1ccc(C(=O)NNc2c3ccccc3nc3ccccc23)cc1`, the “growth rescue (activation)” value is inactive: 8.1%.

As to `Cc1ccc(CC(=O)N/N=C/c2ccc(OC(=O)c3ccc([N+](=O)[O-])cc3)cc2)cc1`, the “growth rescue (activation)” value was inactive: 9.53%. In the case of `O=C(NCC(=O)N(c1ccc(Cl)cc1)C(C(=O)NC1CCCC1)c1cccnc1)c1ccco1` (configuration not stated), the “growth rescue (activation)” value is inactive: -3.83%. The same measure for `O=C(Nc1ccccc1)c1ccc(CN2CCc3ccccc3C2)cc1`: inactive: -2.62%; for `Cc1cc(C)n(C(=O)Cc2cn3ccsc3n2)n1`: inactive: -9.48%. The same measure for `CCN(CC)S(=O)(=O)c1ccc(NC(=O)COC(=O)CCc2cc(OC)c(OC)c(OC)c2)cc1`: inactive: -1.38%; for `CCc1nnc(NC(=O)c2sc3nc4c(cc3c2N)CCCCC4)s1`: inactive: -1.12%; for `Cc1cnc(CNC(=O)c2csc(COCCO)n2)cn1`: inactive: 12.2%. Turning to `S=C1NCN(C2CCCCC2)CN1CCc1ccccc1`, the “growth rescue (activation)” value is inactive: 1.81%. Take `Cc1cc(C)nc(NC(=O)c2cc(-c3ccc4c(c3)OCO4)nc3ccccc23)c1`: the “growth rescue (activation)” value was inactive: 27.5%. As for `Cc1cs/c(=N\N=C2CCCCC2)n1Cc1ccco1`, the figure is inactive: 0.286%; as for `CC(=O)Nc1ccc(S(=O)(=O)N2CCC(NC(=O)C(Cc3ccccc3F)NC(C)=O)CC2)cc1` (configuration not stated), inactive: 9.03%. Turning to `CC1CCN(C(=O)COc2ccccc2F)CC1`, the “growth rescue (activation)” value was inactive: 11.5%. As for `Cc1cc(C)cc(N2C(=O)C3C4C=CC(C4)C3C2=O)c1` (configuration not stated), the “growth rescue (activation)” value is inactive: -31.7%.

In the case of `O=C(N/C(=C/c1cn(-c2ccccc2)nc1-c1ccccc1)C(=O)N1CCOCC1)c1ccc(Cl)cc1Cl`, the “growth rescue (activation)” value is inactive: -20.9%. Consider `CCOC(=O)N1CCN(C(=O)c2cc3c(=O)[nH]c4ccccc4c3s2)CC1`, for which the “growth rescue (activation)” value was inactive: 6%. The same measure for `Cc1ccc(S(=O)(=O)CCc2nnc(NC(=O)CCl)s2)cc1C`: inactive: 2.27%. In the case of `CC(=O)Nc1ccc(S(=O)(=O)NCC(=O)OCC(=O)NCc2ccc3c(c2)OCO3)cc1`, the “growth rescue (activation)” value was inactive: 8.61%. For the compound `Cc1cc(C)n2nc(C(=O)N/N=C/c3c4ccccc4cc4ccccc34)nc2n1`, the “growth rescue (activation)” value is inactive: -9.36%.

`Cn1c(=O)c2cc(NC(=S)NCc3ccccc3F)ccc2n1Cc1cccc(C(F)(F)F)c1`: the “growth rescue (activation)” value is inactive: -10.8%. As for `CCc1ccc(NC(=O)N2CCN(c3ccccc3)CC2)cc1`, the “growth rescue (activation)” value is inactive: 8%. Consider `CCn1c(CSc2nc(C)cc(C)n2)nnc1SCC(N)=O`, for which the “growth rescue (activation)” value was inactive: 2.73%.

As for `O=C(COC(=O)CCC(=O)c1ccc(F)cc1)NCc1ccccc1Cl`, the “growth rescue (activation)” value was inactive: 10.3%. The same measure for `COc1ccc(Cl)cc1S(=O)(=O)NC(C)C(=O)NCCCn1ccnc1` (configuration not stated): inactive: 2.15%; for `COc1cc(/C(C)=N/NC(=O)Cc2c(C)[nH][nH]c2=O)ccc1O`: inactive: 17.7%. As for `Cc1nnc(NC(=O)CSc2nnc(CNC(=O)c3ccccc3F)n2C(C)C)s1`, the “growth rescue (activation)” value was inactive: 3.72%.

On to `O=C(CSc1ccc([N+](=O)[O-])cc1)NNC(=O)c1ccccc1F`, for which the “growth rescue (activation)” value is inactive: 7.62%.

Consider `N#C/C(=C\c1ccc(-c2ccc(F)cc2)o1)C(=O)Nc1nc(-c2cccs2)cs1`, for which the “growth rescue (activation)” value is inactive: 2.57%.

With `O=C(COC(=O)c1cccnc1Nc1cccc(C(F)(F)F)c1)NC1CCS(=O)(=O)C1` (configuration not stated), the “growth rescue (activation)” value is inactive: -7.75%. With `Cc1ccc(-n2cc(CN(C)Cc3nccn3C)c(-c3cccc(C)c3)n2)cc1`, the “growth rescue (activation)” value is inactive: -10.9%. On to `CCOc1ccccc1NC(=O)[C@@H](NC(=O)c1ccccc1F)C(C)C`, for which the “growth rescue (activation)” value is inactive: -18.1%.

For `O=C(CSc1nc2ncc(Cl)cc2[nH]1)NCC(=O)Nc1ccc(F)c(F)c1F`, the “growth rescue (activation)” value was inactive: 5.65%.

Regarding `Cc1ccc(C)c(-n2cc(CN3CCN(C(=O)c4ncn[nH]4)CC3)c(-c3ccccc3)n2)c1`, the “growth rescue (activation)” value is inactive: -5.02%. For the compound `O=C(NCCc1ccccc1)C1CCC(CNS(=O)(=O)c2cccc3cccnc23)CC1` (configuration not stated), the “growth rescue (activation)” value was inactive: 0.518%.

For the compound `Cc1cc(NS(=O)(=O)c2ccc(NC(=O)c3ccc([N+](=O)[O-])s3)cc2)nc(C)n1`, the “growth rescue (activation)” value was inactive: 38.4%.

As for `COc1ccc(C(=O)C[n+]2cc(-c3ccc(OC)cc3)n3c2CCCC3)cc1`, the “growth rescue (activation)” value is inactive: -0.751%. For the compound `CC1(C)C(=O)NCCN1C(=O)c1ccc2nc(Cc3ccccc3F)oc2c1`, the “growth rescue (activation)” value is inactive: 5.22%. For `O=C(CSc1nncc2ccccc12)N1CCCCC1`, the “growth rescue (activation)” value is inactive: 4.06%. On to `CC1Cc2ccccc2N1C(=O)CN1CCc2ccccc2C1` (configuration not stated), for which the “growth rescue (activation)” value is inactive: -10.8%. Consider `O=C(N/N=C/c1ccc(N2CCOCC2)cc1)C1CC1`, for which the “growth rescue (activation)” value was inactive: 8.16%.
